Screen size: about 46,000 compounds; about 60 (0.1%) were called active. Another 3% or so got no clear call; they are omitted. The call rests on the fitted dose curve; in most records, active means well fitted inhibition curve with a large enough effect; inconclusive means small, poorly fitted or top-dose-only effect; inactive means no such curve, though single readings can be large or run the other way. The list shows a part of the results.
Test: Primary qHTS assay for Inhibitors of ovarian cancer metastasis using an organotypic tumor microenvironment (TME) model. Further: nearly all actives have a fitted effect of over 65% in size.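 On activity change, negative = inhibition: plate controls were DMSO wells for no effect and tomatine positive control wells for full effect.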
Conditions: SKOV3ip1-GFP adhesion/invasion on 3D omental model, fluorescence; series mostly up to 45.8 µM; activity change, negative = inhibition: at the top concentration
Outline: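 Primary human omental fibroblast/mesothelial 3D culture pre-formed 48 h. SKOV3ip1-GFP cells added with compounds (0.36-46 umol/L), incubated 2 h RT/16 h 37 C, fixed; GFP cells quantified at 488/509 nm.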

Activity change, negative = inhibition, inactive:
Cc1ccc(CSc2oc(-c3cccs3)nc2S(=O)(=O)c2ccccc2)cc1 1.19%
COc1ccc(CCNC(=O)c2cnn(-c3ccc(F)cc3)c2C2CCN(C(=O)OC(C)(C)C)CC2)c(OC)c1 -5.39%
COc1cccc(NC(=O)C2CCN(c3nnc(C)c4c(C)n(-c5ccccc5)nc34)CC2)c1 -2.36%
Cc1ccc(S(=O)(=O)N(CC(=O)NCCc2ccc(Cl)cc2)c2ccccc2C)cc1 -17.1%
Cc1c(NC(=O)c2cc(-c3cccc(O)c3)on2)c(=O)n(-c2ccccc2)n1C 23.8%
CCOC(=O)N1CCc2c(sc3c2c(=O)n(Cc2ccccc2)c(=O)n3Cc2ccccc2Cl)C1 1.67%
Cc1ccc2ncc(C(=O)N3CCN(c4ccccc4F)CC3)c(=O)n2c1 4.45%
O=C(COc1ccccc1F)Nc1nnc(SCc2cc(=O)c3ccccc3[nH]2)s1 -25.6%
OC[C@@H](O)[C@@H](O)[C@H](O)[C@@H](O)CO -3.78%
COc1ccc(NC(=O)C2CCCN(S(=O)(=O)c3ccc4c(c3)oc(=O)n4C)C2)c(OC)c1 (stereo not drawn) -25.8%
Cc1c(NC(=O)c2cc(=O)c3ccccc3o2)c(=O)n(-c2ccccc2)n1C 0.58%
COCCCNC(=O)c1ccc(-n2c(-c3ccccc3)cc3c2CCC(C)C3)cc1 (stereo not drawn) -21.4%
COc1cccc(-c2nnc(SCC(=O)NC3CCCCC3)o2)c1 8.78%
COc1ccc(S(=O)(=O)Nc2ccc(-c3cn4ccsc4n3)cc2)cc1C 72.5%
CCCCOc1ccc(S(=O)(=O)Nc2ccc(-c3ccc(N4CCC(C)CC4)nn3)cc2)cc1 -17.2%
CCOc1ccc(CCNC(=O)C2CCN(C(=O)c3cc4sccc4n3CC)CC2)cc1OCC -6.68%
Cc1ccc(NC(=O)c2ccc(CN3C(=O)CCn4nc(C)cc43)cc2)c(Cl)c1 1.4%
CCCn1c(=O)c2sccc2n2c(CCCC(=O)Nc3ccc(Oc4ccc(Cl)cc4)cc3)nnc12 -2.45%
CCOC(=O)c1noc2nc(C)n(Cc3cccc(C#N)c3)c(=O)c12 8.88%
COc1ccc(CCNC(=O)c2ccc3c(c2)nc2n3CCC(C)C2)cc1OC (stereo not drawn) -18.4%
CC(=O)c1ccc(NC(=O)C2CCC(CNS(=O)(=O)c3cccs3)CC2)cc1 (stereo not drawn) -0.191%
Cc1cccc(NC(=O)Cn2c(=O)ccc3cc(S(=O)(=O)N4CCCC4)ccc32)c1C -2.99%
CCOC(=O)c1[nH]c(C)c(CCC(=O)NCc2ccc(OC)cc2)c1C 1.19%
Cc1c(NC(=O)c2cc(-c3ccc(Cl)cc3)on2)c(=O)n(-c2ccccc2)n1C -9.4%
CCOc1ccc(NC(=O)N2CCN(Cc3cc(=O)n4nc(-c5ccc(OC)cc5)sc4n3)CC2)cc1 -0.114%
CCNC(=O)c1ccc(CSc2nc3ccncc3n2Cc2ccc(F)cc2)cc1 -2.95%
CCCCC(=O)O[C@]1(C(=O)CO)[C@@H](C)C[C@H]2[C@@H]3CCC4=CC(=O)C=C[C@]4(C)[C@@]3(F)[C@@H](O)C[C@@]21C 4.06%
Cc1cccc(CCNC(=O)CN(c2ccc(C(C)C)cc2)S(=O)(=O)c2c(C)nn(C)c2C)c1 3.07%
Cc1ccc(NC(=O)N2CCN(c3cc(-c4noc(C)n4)ccc3C)CC2)c(C)c1 5.85%
CCn1c(C(=O)NCc2cc(Br)ccc2OC)cc2oc3ccccc3c21 -11%
CCN(C(=O)Cn1cnc2onc(-c3ccc(F)cc3)c2c1=O)c1cc(C)ccc1C 0.119%
COc1ccc(CNc2nc3ccccc3c3nc(-c4ccccc4)nn23)cc1 -12.3%
COc1ccc(CCNC(=O)C2CCN(c3nc4ccccc4nc3C(F)(F)F)CC2)c(OC)c1 154%
Cc1ccc(C)c(CN2C(=O)C3(c4ccccc42)N(c2ccc(Cl)cc2)C(=O)CS3(=O)=O)c1 (stereo not drawn) 30.5%
CCc1ccc(NS(=O)(=O)c2c(C)nc3sc(CC)nn3c2=O)cc1 -15.3%
COc1ccc(-c2ccc(NS(=O)(=O)c3cccc(C)c3)cc2)nn1 -9.85%
CCOc1cccc(C2CC(=O)Nc3cc4c(cc32)OCCO4)c1 (stereo not drawn) -18.4%
Cc1cccc(NC(=O)CSc2nc(-c3ccccc3Cl)nc3c2Cc2c(CO)cnc(C)c2O3)c1C 0.97%
COc1ccc(CCNc2nc3c(-c4cccc(F)c4)nnn3c3ccccc23)cc1OC 2.4%
COc1ccc(-c2cc(C)no2)cc1S(=O)(=O)N1CCN(c2ccccc2F)CC1 -5.77%
CC(=O)N1c2ccccc2CC1C(=O)NCc1cccc(Cl)c1 (stereo not drawn) 6.48%
COc1cc2c(cc1OC)C(COc1ccc3c(C)cc(=O)oc3c1)N(C(=O)c1ccccc1F)CC2 (stereo not drawn) -0.48%
COc1cc2c(cc1OC)n(Cc1ccc([N+](=O)[O-])cc1)c(=O)n1nc(-c3ccccc3)nc21 1.89%
Cc1ccccc1NC(=O)CSc1cn(CC(=O)N(C(C)C)C(C)C)c2ccccc12 12.7%
CCc1ccccc1NC(=O)c1ccc(CN2C(=O)CCn3nc(C)cc32)cc1 -18%
CCc1ccc(NC(=O)Cn2c(=O)n(-c3ccc(OC)cc3)c(=O)c3ccc(C(=O)NCc4ccc(C)cc4)cc32)cc1 1.33%
Cc1ccc2nc(NC(=O)CSc3ncc(C(=O)Nc4ccc(F)cc4)c(=O)n3C)sc2c1 17.5%
CCn1cc(C(=O)N(C)c2ccc(C(C)C)cc2)c2cc(OC)c(OC)cc2c1=O 2.77%
CCCN(CCC)CC(O)Cn1cc(/C=C/C(=O)c2ccc(Br)cc2)c2ccccc21 (stereo not drawn) -4.54%
Cc1ccc(CNC(=O)CCNS(=O)(=O)c2cccc3nsnc23)cc1 3.37%
CCc1ccc(-n2nc(C)c3c(C)cc(=O)n(CC(=O)Nc4ccc(F)cc4C)c32)cc1 0.854%
CCc1nn(CC(=O)NC(C)CCc2ccccc2)c(=O)c2cc3c(OC)cccc3n12 (stereo not drawn) 12.7%
CCOC(=O)c1noc2nc(C)n(Cc3cccc([N+](=O)[O-])c3)c(=O)c12 -12.1%
Cc1ccc(Cc2nc3ccccc3nc2SCC(=O)N2CCN(c3ccc(F)cc3)CC2)cc1 -3.96%
COCCn1cc(C(=O)NCCCOC(C)C)c2c3ccccc3n(C)c2c1=O 0.987%
COc1ccc(CNC(=O)Cc2ccc(NC(=O)N3CCSc4ncccc43)cc2)cc1 -3.12%
COc1ccccc1NC(=O)CSC1=Nc2ccccc2C2=NC(CC(=O)NCc3ccccc3)C(=O)N12 (stereo not drawn) -9.48%
Cn1c(=O)c2c(nc(N3CCOCC3)n2Cc2ccc(Br)cc2)n(C)c1=O 83.4%
CCOc1ccc(NC(=O)C2CCCN(c3nnc(C)c4c(C)n(-c5ccccc5)nc34)C2)cc1 (stereo not drawn) -2.58%
CCOC(=O)Cn1c(=O)n(C2CCCCC2)c2nc(-c3ccc(C(C)C)cc3)nc(C(N)=O)c21 -8.01%
Cc1ccc2c(CN3CCN(C(=O)c4ccc(Br)cc4)CC3)cc(=O)oc2c1 1.43%
Cc1ccc(S(=O)(=O)N2CCc3cc(C(=O)Nc4c(F)cccc4F)ccc32)cc1 2.82%
CCC(C(=O)N1CCN(c2cc(C)ccc2C)CC1)n1nc(C)n2c(cc3occc32)c1=O (stereo not drawn) 81.1%
O=C(CSc1ccc(-c2ccccn2)nn1)Nc1ccc(F)cc1F 5.75%
Cc1ccc(CN2CCN(C3CCNCC3)C(=O)C2=O)cc1 -10.2%
CC(=O)N1CCc2cc(S(=O)(=O)NC(Cc3ccccc3)C(=O)NCc3ccc(C)cc3)ccc21 (stereo not drawn) 3.88%
O=C(Nc1ccc(Br)cc1)c1ccc(F)c(S(=O)(=O)N2CCc3ccccc32)c1 -8.58%
CC(=O)N1CCc2cc(CNC(=O)c3ccccc3Br)ccc21 6.8%
Cc1ccc(CN2CCN(C3CCN(C(=O)Nc4ccc(C)cc4Cl)CC3)C(=O)C2=O)cc1 0.355%
CCCCNS(=O)(=O)c1ccc(C)c(-c2nnc3c4ccccc4c(C)nn23)c1 -5.13%
CNS(=O)(=O)c1cn(CC(=O)Nc2ccc(C(C)=O)cc2)cc1S(=O)(=O)NC 4.52%
Nc1ccn(C[C@@H](CO)OCP(=O)(O)O)c(=O)n1 6.19% [at 23.2 µM]
Cc1ccc(S(=O)(=O)C(CNC(=O)C(=O)NCc2ccccc2C)c2cccs2)cc1 (stereo not drawn) 4.95%
CCOC(=O)c1ccc(NC(=O)CCn2ccc(C)n2)cc1 -3.86%

outcome, inactive:
CCc1ccccc1NC(=O)N1CCc2c([nH]c3ccccc23)C1c1ccc(C)cc1 (stereo not drawn)
CCc1ccc(OCC(=O)N(Cc2ccc(C)o2)C2CCS(=O)(=O)C2)cc1 (stereo not drawn)
COc1cccc(N2CCN(C(=O)c3cccn3-c3nnc(N4CCCC4)s3)CC2)c1
COc1ccc(CCN2C(=O)c3oc4cc(C)cc(C)c4c(=O)c3C2c2ccccc2F)cc1OC (stereo not drawn)
CC(=O)c1ccc(NS(=O)(=O)c2ccc(-c3cc(C)no3)s2)cc1
COc1cccc(Cc2nc3ccccc3nc2SCC(=O)NCc2ccc(C)cc2)c1
O=C(NCc1ccc(F)cc1)c1ccc2c(c1)nnn2C1CCCC1
COc1ccc(N2C(=O)CS(=O)(=O)C23C(=O)N(Cc2ccc(C)cc2)c2ccccc23)cc1Cl (stereo not drawn)
Cc1ccccc1-c1nnc(SCC(=O)N(C)C2CCCCC2)o1
Cc1ccccc1OCC(=O)Nc1ccc2nc(SCc3ccccc3)sc2c1
Cc1ccc(OCC(=O)Nc2nc(-c3ccc(Br)cc3)ns2)cc1C
CC(=O)c1ccc(NC(=O)c2nc(-c3ccc(C)cc3)n3c2CCCCC3)cc1
COc1ccc(OCC(=O)NC2CC(=O)N(c3ccc4c(c3)OCCO4)C2)cc1 (stereo not drawn)
CC1CCN(c2nc3c(S(=O)(=O)c4ccc(Cl)cc4)nnn3c3ccsc23)CC1
COCCNC(=O)C1CCN(c2nc3ccccc3nc2C(F)(F)F)CC1
Cc1c(CCC(=O)N2CCCCC2)c(=O)oc2cc3occ(C(C)(C)C)c3cc12
COc1ccc(NC(=O)C2CCN(c3ccc(Sc4ccc(C)cc4)nn3)CC2)c(OC)c1
O=C(NCc1cccs1)C1CCN(C(=O)N2CCOc3ccc(Cl)cc32)CC1
COc1ccc(CCNC(=O)C2CCN(S(=O)(=O)c3c(C)noc3/C=C/c3ccc(C)cc3)CC2)cc1OC
